Source: paper PMC3275592, “Structural and Functional Insights into Endoglin Ligand Recognition and Binding” (PLoS ONE, 2012)

Key:
Conditions in all cases: both partners purified
[1] = target: T1, Bone morphogenetic protein 9 (BMP-9) (human, UniProt Q9UK05 320-429); experiment: SPR; Biacore T100; BMP-9 immobilised on CM5 chip by amine coupling; analyte alone at six concentrations 12.5-400 nM; 25°C; 10 mM HEPES pH 7.4, 150 mM NaCl, 3 mM EDTA, 0.05% P20; 1:1 binding model, global fit; apparent KD; triplicates
T1 construct: BMP-9, human, carrier-free protein from R&D Systems; Immobilised on a CM5 chip by amine coupling; also called Bone Morphogenetic Protein (BMP)-9; source: bought: R&D Systems (carrier free)
T1 sequence (looked up): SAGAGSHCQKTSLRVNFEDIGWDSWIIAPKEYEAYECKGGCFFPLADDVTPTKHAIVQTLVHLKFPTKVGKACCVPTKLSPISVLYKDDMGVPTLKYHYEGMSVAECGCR

[2] = target: T2, BMP-9 immobilised on the chip and saturated with captured HG-EndoEC (human, UniProt Q9UK05 320-429; P17813 22-587, mature, branched sugars (high glycosylation)); experiment: SPR; Biacore T100; capture experiment: first analyte injected at 750 nM for 60 s over immobilised BMP-9 to saturate it, then the second analyte at different concentrations; 25°C; 10 mM HEPES pH 7.4, 150 mM NaCl, 3 mM EDTA, 0.05% P20; 1:1 binding model
T2 construct: BMP-9, human, carrier-free protein from R&D Systems; as m1; endoglin, human, extracellular region, residues 22-587; as m2; Non-covalent complex formed by the capture step of the SPR run; also called captured ligand HG-EndoEC on BMP-9; source: formed on the sensor chip: HG-EndoEC injected at 750 nM over amine-coupled BMP-9 (R&D Systems)
T2 sequence (looked up) 1: T1 sequence (looked up)
T2 sequence (looked up) 2: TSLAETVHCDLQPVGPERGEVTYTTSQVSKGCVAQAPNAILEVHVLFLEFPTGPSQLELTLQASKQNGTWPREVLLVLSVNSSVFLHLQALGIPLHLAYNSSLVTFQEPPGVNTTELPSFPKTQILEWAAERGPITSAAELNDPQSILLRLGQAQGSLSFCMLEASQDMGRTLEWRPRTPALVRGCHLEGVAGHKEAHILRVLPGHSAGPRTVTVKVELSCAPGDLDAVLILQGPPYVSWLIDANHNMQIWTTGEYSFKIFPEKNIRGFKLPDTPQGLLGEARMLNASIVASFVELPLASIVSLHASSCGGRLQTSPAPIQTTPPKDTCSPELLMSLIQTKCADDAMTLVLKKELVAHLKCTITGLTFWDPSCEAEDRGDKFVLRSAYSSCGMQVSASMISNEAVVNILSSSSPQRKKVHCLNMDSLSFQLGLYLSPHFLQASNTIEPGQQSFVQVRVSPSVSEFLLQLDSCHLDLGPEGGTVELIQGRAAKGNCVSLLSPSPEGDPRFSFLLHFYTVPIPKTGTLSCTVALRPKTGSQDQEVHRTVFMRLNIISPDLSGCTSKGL

[3] = target: T3, LG-EndoEC, full length extracellular region of human endoglin (residues 22-587), low glycosylation (human, UniProt P17813 22-587, short, well defined sugars of the type Man5NAG2 (low glycosylation); putative Asn glycosylation sites Asn88, Asn102, Asn121, Asn134 and Asn307 (Asn306 in Figure 1)); experiment: as above
T3 construct: endoglin, human, extracellular region, residues 22-587; Dimeric and monomeric species seen on gels; also called endoglin ectodomain; source: HEK293S GnTI- suspension cells, transfected, secreted, purified (HisTrap, gel filtration); not shown: 6xHis, C-terminal, kept
T3 sequence (looked up): T2 sequence (looked up) 2

[4] = target: T4, Endo338, endoglin orphan domain construct (residues 22-337) (human, UniProt P17813 22-337, Man5NAG2 glycans (5 modelled at their attachment sites)); experiment: as above
T4 construct: also called Endoglin338; OD; source: HEK293S GnTI- suspension cells, transfected, secreted, purified (HisTrap, gel filtration); not shown: 6xHis, C-terminal, kept
T4 sequence (looked up): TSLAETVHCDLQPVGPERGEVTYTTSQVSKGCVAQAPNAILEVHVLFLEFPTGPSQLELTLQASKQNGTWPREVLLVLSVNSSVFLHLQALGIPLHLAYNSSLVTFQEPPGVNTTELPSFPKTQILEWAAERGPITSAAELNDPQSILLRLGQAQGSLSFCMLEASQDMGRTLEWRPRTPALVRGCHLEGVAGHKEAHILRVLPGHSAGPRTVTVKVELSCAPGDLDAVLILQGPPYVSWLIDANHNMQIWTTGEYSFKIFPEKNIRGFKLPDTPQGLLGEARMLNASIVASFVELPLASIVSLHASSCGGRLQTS

[5] = target: T5, HG-EndoEC, full length extracellular region of human endoglin (residues 22-587), high glycosylation (human, UniProt P17813 22-587, mature, branched sugars (high glycosylation); putative Asn glycosylation sites Asn88, Asn102, Asn121, Asn134 and Asn307 (Asn306 in Figure 1)); experiment: as above
T5 construct: endoglin, human, extracellular region, residues 22-587; EndoEC dimerized to some extent through a disulfide bond; also called endoglin ectodomain; source: HEK293 FreeStyle (HEK293F), transfected, secreted, purified (HisTrap, gel filtration)
T5 sequence (looked up): T2 sequence (looked up) 2

B1: LG-ALK1EC, ALK1 ectodomain ([…]), low glycosylation (domain or fragment)
chain: not shown
modifications: low glycosylation (HEK293S GnTI-); theoretical N-glycosylation site at Asn98
notes: ALK1 (activin receptor-like kinase 1), human, predicted complete ectodomain, […]; source: HEK293S GnTI- cells, transfected, secreted, purified (HisTrap, Superdex 75)
[1]
  Kd: 18.9 nM
  koff: 0.00403 s⁻¹
  kon: 213000 M⁻¹ s⁻¹

B2: HG-ALK1EC, ALK1 ectodomain ([…]), high glycosylation (domain or fragment)
chain: not shown
modifications: mature glycosylation; theoretical N-glycosylation site at Asn98
notes: ALK1 (activin receptor-like kinase 1), human, predicted complete ectodomain, […]; also called activin receptor-like kinase (ALK)1 ectodomain; source: HEK293 FreeStyle (HEK293F), transfected, secreted, purified (HisTrap, Superdex 75)
[1]
  Kd: 46.4 nM
  koff: 0.0056 s⁻¹
  kon: 121000 M⁻¹ s⁻¹
[2]
  Kd: 59.3 nM
  koff: 0.00772 s⁻¹
  kon: 130000 M⁻¹ s⁻¹

B3: BMP-9 immobilised on the chip and saturated with captured HG-ALK1EC (complex)
chain 1: T1 sequence (looked up)
chain 2: [letters of about 100 residues omitted]
modifications: mature glycosylation; theoretical N-glycosylation site at Asn98
notes: BMP-9, human, carrier-free protein from R&D Systems; as m1; ALK1, human, ectodomain, […]; as m4; Non-covalent complex formed by the capture step of the SPR run; also called complex ALK1 - BMP-9; captured ligand HG-ALK1EC on BMP-9; source: formed on the sensor chip: HG-ALK1EC injected at 750 nM over amine-coupled BMP-9 (R&D Systems)
[3]
  Kd: 2.62 nM
  koff: 0.000913 s⁻¹
  kon: 349000 M⁻¹ s⁻¹
[4]
  Kd: 155 nM
  koff: 0.192 s⁻¹
  kon: 1.22e+06 M⁻¹ s⁻¹
[5]
  Kd: 15 nM
  koff: 0.0109 s⁻¹
  kon: 711000 M⁻¹ s⁻¹
